Results reported in ChEMBL document CHEMBL4888484, “Replenishing the malaria drug discovery pipeline: Screening and hit evaluation of the MMV Hit Generation Library 1 (HGL1) against asexual blood stage Plasmodium falciparum ,using a nano luciferase reporter read-out” (2022).
Several values for one entry are separate records, joined by “and”; a condition that tells them apart may be missing. Equal entries are not always repeated. The whole screen tested about 150,000 compounds, of which about 540 (0.36%) showed an effect of 50% or more. The list shows a part of the results.

Tested on: Plasmodium falciparum
Experiment: Primary screen in NF54 nanoGlo assay, in single point, at 2uM, 72h; a lower Z score goes with more inhibition
Format: functional, Erythrocyte
Settings: timepoint 72 hour

`CCNC(=O)N1CCC(NC2CCN(c3cc(C)cc(C)c3)CC2)CC1` was tested, and the “% Inhibition” value was 5% and the Z score was -0.74.
`CC(C)c1ccc(C(=O)N2CCc3[nH]cnc3[C@H]2c2cccnc2)c(O)n1` was tested, and the “% Inhibition” value was -14% and the Z score was 1.28.
With `Cc1ccn2c(CN3CCN(C(=O)CNS(=O)(=O)c4ccc(Cl)s4)CC3)c(C)nc2c1` the “% Inhibition” value was 10% and the Z score was -1.22.
`COCCn1nnc([C@@H]2CN(C(=O)Cc3csc(C)n3)CCO2)n1` was tested, and the “% Inhibition” value was -2% and the Z score was 0.34.
For `COc1c(F)cc(C(=O)NC(Cc2ccncc2)[C@H]2C[C@@H](O)C2)cc1F` (stereo not given in full), the “% Inhibition” value was -1% and the Z score was 0.25.
In the case of `CC(C)c1cnc(N[C@H]2CCN(C(C)(C)C)C2)nc1`, the “% Inhibition” value is reported as -17% and the Z score is reported as 2.11.
With `C=CCNC(=O)N1CCN(c2nc3cc(Cl)ccc3c3nnc(-c4ccc(C)cc4)n23)CC1` the “% Inhibition” value was -14% and the Z score was 1.41.
In the case of `CN(c1cnc2ccccc2n1)C1CN(c2ccc3nncn3n2)C1`, the “% Inhibition” value is reported as -11% and the Z score is reported as 2.3.
In the case of `NC(=O)N1CCC[C@H]1C(=O)Nc1ccc2c(c1)CCC2`, the “% Inhibition” value is reported as 1% and the Z score is reported as -0.1.
In the case of `CN(C)c1ccc(NC(=O)c2cnn[nH]2)cc1`, the “% Inhibition” value is reported as -13% and the Z score is reported as 2.53.
For `CC(C)(C)OC(=O)N1C[C@@H](C(=O)O)C[C@@H](C(C)(C)C)C1`, the “% Inhibition” value was -6% and the Z score was 0.64.
`COc1ccc(OC)c(CNC(=O)C2CCN(C(=O)N3C[C@@H]4C[C@H](C3)[C@H]3CCCC(=O)N3C4)CC2)c1` was tested, and the “% Inhibition” value was -5% and the Z score was 1.08.
For `O=C(Nc1nncs1)c1cccc(C(=O)Nc2nncs2)n1`, the “% Inhibition” value was 77% and the Z score was -14.68.
In the case of `COCCN1CCN(Cc2cn(-c3ccccc3)nc2-c2ccc3c(c2)OCO3)CC1`, the “% Inhibition” value is reported as -1% and the Z score is reported as 0.19.
In the case of `CCc1cccc2c(=O)cc(C(C)C)n(CC(=O)NC3CC3)c12`, the “% Inhibition” value is reported as -11% and the Z score is reported as 1.03.
`CS(=O)(=O)N1CCN(Cc2ccccn2)CC1` was tested, and the “% Inhibition” value was -8% and the Z score was 0.96.
`O=C(c1[nH]cnc1-c1ccccc1)N1CCc2nocc2C1` was tested, and the “% Inhibition” value was -13% and the Z score was 1.82.
In the case of `Cc1cc2c(cc1NC(=O)NCc1cncn1CC(C)C)OCCO2`, the “% Inhibition” value is reported as -17% and the Z score is reported as 2.41.
In the case of `O=C(CN1CN(c2ccccc2)C2(CCN(C(=O)c3cccc(F)c3)CC2)C1=O)NCc1ccccc1`, the “% Inhibition” value is reported as -13% and the Z score is reported as 1.27.
`CN(C)C(=O)CNC(=O)c1ccc2c(c1)n(CC1CC1)c(=O)n2C1CCCCC1` was tested, and the “% Inhibition” value was -6% and the Z score was 1.03.
For `COC(=O)c1ccc(Oc2nc(N3CCCC3)c(Cl)c3c2N(C2CCCCC2)CCS3(=O)=O)cc1`, the “% Inhibition” value was -1% and the Z score was 0.15.
For `CNCCNC(=O)c1c(C)c(C)cc(C)c1C`, the “% Inhibition” value was 6% and the Z score was -1.06.
In the case of `CC(C)N(CCN1CCCCCC1)C(=O)[C@H]1CCCN(C(=O)C(C)(C)C)C1`, the “% Inhibition” value is reported as -8% and the Z score is reported as 0.92.
`CCS(=O)(=O)N1CCC[C@H](C(=O)NC2CCCCCCC2)C1` was tested, and the “% Inhibition” value was -14% and the Z score was 2.57.
`O=C(C[C@@H]1NC(=O)N(c2ccccc2)C1=O)N1CCc2ccccc2C1` was tested, and the “% Inhibition” value (2 µM) was -2% and -9%.
In the case of `Cc1nc(NCc2ccco2)sc1C(=O)Nc1ccccc1`, the “% Inhibition” value is reported as -16% and the Z score is reported as 2.95.
For `O=C(C1=Cc2ccccc2OC=C1)N1CCOC[C@@H](CO)C1`, the “% Inhibition” value was -5% and the Z score was 0.77.
`CNC(=O)c1cc(O[C@H]2CCCN(Cc3nnc(C)s3)C2)ccn1` was tested, and the “% Inhibition” value was -4% and the Z score was 0.41.
In the case of `Cc1ccc2c(c1)nc(-n1nc(C)cc1C)c1nnnn12`, the “% Inhibition” value is reported as 37% and the Z score is reported as -4.16.
`O=C(c1ccc2[nH]ncc2c1)N1CCOC[C@@H]1CC1CCC1` was tested, and the “% Inhibition” value was -18% and the Z score was 2.19.
With `Cn1ccnc1[C@H]1CCN(S(=O)(=O)c2cc(Cl)sc2Cl)C1` the “% Inhibition” value was -6% and the Z score was 0.54.
For `O=C(Cc1ccc(N(Cc2ccc(F)cc2)C(=O)c2cccc(F)c2)cc1)NCc1ccccc1`, the “% Inhibition” value was -2% and the Z score was 0.3.
In the case of `Cc1ncc(CNC(=O)c2cccc(CO)c2)c(O)n1`, the “% Inhibition” value is reported as 3% and the Z score is reported as -0.3.
`N#CCCCCn1c(-c2cncs2)nc2ccccc21` was tested, and the “% Inhibition” value was -35% and the Z score was 4.07.
For `c1cnn(-c2ccc(CN3CCOC[C@@]34CCOC4)cc2)c1`, the “% Inhibition” value was 10% and the Z score was -1.28.
With `COCCC1(C)CN(Cc2cc(OC)ccc2OC(F)F)C1` the “% Inhibition” value was -1% and the Z score was 0.11.
`COc1ccc(/C=C\c2onc(C)c2NC(C)=O)cc1S(=O)(=O)Nc1ccc(Cl)cc1` was tested, and the “% Inhibition” value was 0% and the Z score was 0.02.
With `O=S1(=O)CCCN1Cc1sccc1Cl` the “% Inhibition” value was -10% and the Z score was 1.22.
With `c1ccc2c(c1)ccn2Cc1nnc2n1CCCC[C@H]2C1CCOCC1` the “% Inhibition” value was 5% and the Z score was -0.95.
`CCOC(=O)c1c(C)c(CCC(=O)N2CCC(C)CC2)n(C)c1C` was tested, and the “% Inhibition” value was 0% and the Z score was 0.01.
For `Cc1nn(C)c(C(=O)N2CCC[C@H](c3ncon3)C2)c1Cl`, the “% Inhibition” value was -6% and the Z score was 1.04.
For `CCc1ccc(Cn2nc(CCOC)nc2Cn2cnnc2)cc1`, the “% Inhibition” value was -13% and the Z score was 1.44.
`Cc1nc(-c2cc(S(=O)(=O)N3CCC[C@H](C(=O)N4CCOCC4)C3)c(C)s2)no1` was tested, and the “% Inhibition” value was 0% and the Z score was 0.04.
`CCCn1cnnc1CN(C)C(=O)c1ccnc(OC)c1` was tested, and the “% Inhibition” value was 2% and the Z score was -0.33.
`CCN1CCN(c2ccc(F)cc2[C@H](C)NS(=O)(=O)c2cc(C(=O)OC)ccc2C)CC1` was tested, and the “% Inhibition” value was 3% and the Z score was -0.46.
In the case of `CCCCCNC(=O)CCC(=O)Nc1c(C)cc(C)cc1C`, the “% Inhibition” value is reported as 7% and the Z score is reported as -0.83.
In the case of `CC[C@H]1CN(C(=O)c2ccc(F)cc2)CC[C@H]1CC(=O)Nc1ccccc1`, the “% Inhibition” value is reported as -2% and the Z score is reported as 0.27.
For `O=C(CN1C(=O)c2ccccc2C1=O)Nc1ccnn1Cc1cccc(Cl)c1`, the “% Inhibition” value was 2% and the Z score was -0.32.
With `O=C(Cn1cncn1)N1CCc2cc(Br)c(F)cc2C1` the “% Inhibition” value was -2% and the Z score was 0.41.
In the case of `Cc1noc(C)c1CC(=O)N[C@H](c1cccnc1)C1CCOCC1`, the “% Inhibition” value is reported as -13% and the Z score is reported as 2.5.
`Cc1cccnc1Cn1ccnc1C1CCN(C(C)C)CC1` was tested, and the “% Inhibition” value was 3% and the Z score was -0.25.
For `CC(C)(C)OC(=O)N1CCC(CC(=O)N2CC[C@H](O)C2)CC1`, the “% Inhibition” value was -4% and the Z score was 0.81.
For `CC1=C[C@@H](CNCCN(C)C)[C@H](C(C)C)C[C@H]1Cc1nnc(-c2ccccc2)o1`, the “% Inhibition” value was -5% and the Z score was 0.61.
